Measurements from the supplement of paper PMC10126150.
Values marked as one replicate rest on one cluster of the flow cell; about a third of the high ones do not repeat.

Tested on: ATP
Assay: switch fluorescence ratio, 500 uM ATP over buffer (Cy3 cluster intensity, sum of 5 cycles each) (fold (ratio)); higher = stronger signal-on switching upon ATP binding; sequences stand for … in TCGTCGGCAGCGTCAGATGTGTATAAGAGACAGTTTTTTTTTTTTTTTTTTTTTTTTT…TC
Settings: aptamer strand: ATP DNA aptamer (quencher-CACCTGGGGGAGTATTGCGGAGGAAGG + anchor), 100 nM annealed; ATP concentration: 500 uM; one replicate
Outline: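 Clusters carrying Cy3-labelled switching strands on a modified Illumina MiSeq flow-cell were annealed to 100 nM quencher-labelled ATP aptamer and imaged in selection buffer. They were imaged again after 15 min with 500 uM ATP at 22 °C, over five buffer/ATP cycles with NaOH stripping and re-annealing in between. For each cluster, the fluorescence ratio is the summed Cy3 intensity of the target cycles divided by that of the buffer cycles, averaged per switch-domain sequence. Clusters outside 100-1000 RFU were left out.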
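Note: ATP exposure 15 min at 22 °C before imaging.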

Row | Sequence | switch fluorescence ratio
1 | CGCGGTATAA | 1.01
2 | GACGACAGGA | 1.08
3 | CGAGTAGAGT | 1
4 | TTATTACGGC | 1.06
5 | GTCAGAAAGT | 0.996
6 | GGCCTTCATG | 1.01
7 | TATGTGTTCG | 0.994
8 | TTAAGAAAAC | 1.02
9 | TCAGTTCTTT | 0.987
10 | GTTTCCCAGG | 1.04
11 | CGTTACTTGA | 1.01
12 | AATAGAGCGA | 0.993
13 | TAAACATTT | 0.992
14 | CGATTAAGGA | 0.968
15 | CAAATGGCAT | 0.983
16 | ACCAATCCCT | 0.952
17 | CCGCCGGTCT | 1.29
18 | TTTATAACGA | 1.02
19 | TGCATTAGTA | 0.977
20 | GGTTCTACT | 0.994
21 | TTTCTTCCGG | 1.11
22 | CGACTTTGTT | 1.04
23 | GACGATATCA | 1
24 | CTGGAGGCTC | 1.06
25 | TTGTGGGAT | 1.04
26 | TTGGTTCGAT | 1.02

Row | Sequence | switch fluorescence ratio
27 | AACACGCGCA | 1.06
28 | TCACCTGCCA | 1.07
29 | ACATTAACCG | 1.05
30 | GTCAGACGGC | 0.978
31 | ACTGTGATCG | 0.986
32 | TCTATGGCTC | 0.945
33 | CAATGCAGT | 0.982
34 | TTCATTCGTA | 0.994
35 | GATTCTGAGG | 0.984
36 | GATGCAGGAG | 1.07
37 | ACGCACCTGG | 1.68
38 | TACGGCGCGC | 1.03
39 | AGCCATTTCT | 1.04
40 | GAGAGGGTCG | 0.94
41 | GCTTGCAGTC | 1.01
42 | TTCGCACAG | 2.56
43 | AGAAAGGGAG | 0.97
44 | GGATCCGACG | 1.08
45 | CTGGACCATG | 0.97
46 | GCATATCCT | 1.05
47 | TGGCTCATCG | 1
48 | ACTGGTCGTC | 1.05
49 | ATTACTGCG | 1.03
50 | CATGCTTAGT | 1.02
51 | TATCGCCAGC | 1.07
52 | TGACTTTTCT | 0.971

Row | Sequence | switch fluorescence ratio
53 | GAGGTAATCG | 1.09
54 | TTGAGTACC | 0.981
55 | CATCGCTAGA | 1.03
56 | CAGGTTCTGA | 0.964
57 | GCCTTGTACT | 1
58 | CTGCGTCTTA | 0.993
59 | AAAAAGTTGC | 0.993
60 | TCCTGCTCGA | 0.952
61 | TCTAGCGGGA | 0.967
62 | CTTTAATTGG | 1.04
63 | CGCTGTGTTA | 1.03
64 | AATCAATAGG | 1.03
65 | TGGGGATGT | 1.02
66 | TATGACCCGA | 1.01
67 | AAGATAGGAC | 0.989
68 | TTAGCGTCA | 0.985
69 | GCCGTTCTGT | 0.978
70 | GTAGCTAAGG | 1.01
71 | CAGGGATTGT | 0.992
72 | CTCTGATCGA | 0.974
73 | TTTGAAGGCC | 0.953
74 | CCATCTCTGA | 1.02
75 | CGACGGGGTA | 1.37
76 | GTTAATCATT | 0.984
77 | TCGGCACAAC | 1.67
78 | AACCTTCAGA | 1.81

Row | Sequence | switch fluorescence ratio
79 | CTCGATTGTG | 0.999
80 | ACTCGGTGAC | 1.11
81 | ACCTCTTGTT | 1
82 | AATGTAGAGG | 1.02
83 | ATTTGACTGA | 1.02
84 | AACCTTAGAG | 1.02
85 | GGCGGCCTTT | 0.966
86 | GACGTTGACT | 1.06
87 | CTAATTGG | 1.03
88 | TGAACGGCAC | 2.1
89 | AGAAAATGAG | 0.958
90 | TCAATCCGAG | 1.06
91 | CGGTGAGCGG | 1.02
92 | TGGCCTATTC | 0.964
93 | TTAGGTGTGC | 0.999
94 | CAAGTGTTTG | 0.979
95 | CCAATCGGTG | 1.12
96 | GGCATGACGC | 1.01
97 | CGCTTAAAGA | 1.01
98 | CAGTAGATGC | 1.13
99 | TGCAACCCGT | 1.13
100 | CAATCGCGGC | 1.62
101 | GTTAGTGCTA | 0.991
102 | CTCGTTCGCA | 1.64
103 | GTTGACCATG | 0.995
104 | CACGGCGGGG | 0.986

Row | Sequence | switch fluorescence ratio
105 | GAGATGGAGG | 1.02
106 | TTTGGCGTTA | 0.996
107 | TACATGAAAG | 1.01
108 | AGTCTTATTA | 0.99
109 | TAAGGAATAT | 1.06
110 | GTTAGAGGTG | 1.03
111 | ACGCTCAGAT | 1.04
112 | GCGTCAAACC | 1.04
113 | TAGAGGGAGC | 1
114 | TTTTAATCCG | 1.08
115 | GGACTAATGG | 1.18
116 | ATGAAGGAAT | 0.985
117 | GTTTGAAGAT | 0.985
118 | CCAGGCTTCC | 2.55
119 | GCCTGTCTGT | 0.932
120 | ACGACTGGTG | 1.25
121 | TACTAATAAG | 0.994
122 | TGGGGCGCGG | 0.988
123 | GGCCAATTTT | 1.03
124 | CCAAGTCGTC | 1.05
125 | TAGCGCCCAG | 1
126 | AGTATCTAAT | 0.994
127 | CGGTAATCG | 0.996
128 | TTTCGCGGTG | 1.02
129 | GTTTATAGGA | 1.01
130 | TCTAAGACTT | 0.972

Row | Sequence | switch fluorescence ratio
131 | AGAGTGGCGA | 1.01
132 | TATGTACCAC | 1.05
133 | ACACGAAATC | 1.33
134 | ACTAGATCTT | 0.978
135 | ACGGCAGTT | 0.967
136 | AGTCGACAGT | 0.999
137 | GAAAGCTACG | 1.02
138 | AAGTGCTAAC | 1.01
139 | TGTAGATCGG | 0.981
140 | AGTGGGGTGT | 0.968
141 | CATGAAACGA | 1.04
142 | GCTCCGGGTT | 1.98
143 | AGATAAAACA | 0.98
144 | ATGGTGATTA | 1.02
145 | TGATATAAAG | 0.999
146 | TTGCCCTCGG | 1
147 | TGTTACAGAA | 1.06
148 | TCGCCTCTCA | 0.962
149 | CTGGAGTGTT | 1.06
150 | GTATCTGGCT | 1.02
151 | AGTCTATAAC | 1
152 | TACTCATGG | 1.05
153 | TAAACGATGG | 1.01
154 | ACAGGGGCAC | 1.14
155 | GGATATAACT | 1.02
156 | GTGATGCTTC | 1.01

Row | Sequence | switch fluorescence ratio
157 | ATACCTTATT | 1.02
158 | ATGTTTCTAA | 1.09
159 | GGGAGGACCC | 1.05
160 | ACTAGCGGCC | 1.04
161 | GAATTTCTAC | 1.09
162 | CCGGCGCACG | 2.59
163 | TGGGAAAA | 1.02
164 | GGGTAGCAAG | 1
165 | AGCCTATATT | 1
166 | GAACTTAATC | 1.04
167 | ACATTATAGG | 1.02
168 | ATGGCAGAG | 1.07
169 | GAAGATACGC | 1.05
170 | ATTAGCCTGT | 1.02
171 | GACTAGCACT | 1.14
172 | TCATGTTACA | 1.04
173 | CAATCTAAAG | 1.01
174 | CTAGCAGAGG | 1.06
175 | TGAGTAGGCG | 1.09
176 | ATCGAACCCG | 1.05
177 | CCGTACTTTT | 1.06
178 | ACCATCGGTA | 1.03
179 | TTCTTTCTTT | 1.02
180 | ATGACAAGGG | 0.984
181 | CCAAGTGTCG | 0.977
182 | CGTAGGACGA | 0.996

Row | Sequence | switch fluorescence ratio
183 | GCGATTATCC | 1.12
184 | AAGACGCGGA | 1
185 | AGGAGGTTCT | 0.972
186 | GTTGTACTGA | 0.969
187 | GACACTGCGT | 1
188 | GATTGAACT | 0.994
189 | CGGGTAGCAT | 1.05
190 | CTTCATACTC | 1.36
191 | GAATTTGCTA | 0.979
192 | AGGGACGGGT | 1
193 | TTCAACCACG | 1.08
194 | CACTCGTACT | 1.19
195 | ATAGCCGGTC | 1.1
196 | ACATTGCAAA | 0.968
197 | CGGTGAATCC | 1.03
198 | TTAGTAGGGC | 0.911
199 | GCATCTACAG | 1.2
200 | AAAGCAGAG | 1.03
201 | GATGTGGATC | 1.05
